Read-outs that look alike come from different tables or passages of the source.
Tests used:
[1] = target: T1, recombinant human VEGF165 (human, UniProt P15692-4 27-191); assay: Octet red96E BLI, human VEGF165 amine-coupled on AR2G sensor, hexamer as analyte, 30° C.
T1 construct: Bought protein from two vendors, treated as one molecule; Species is stated for the Octet material; the R&D material is printed only as VEGF165
T1 sequence (looked up): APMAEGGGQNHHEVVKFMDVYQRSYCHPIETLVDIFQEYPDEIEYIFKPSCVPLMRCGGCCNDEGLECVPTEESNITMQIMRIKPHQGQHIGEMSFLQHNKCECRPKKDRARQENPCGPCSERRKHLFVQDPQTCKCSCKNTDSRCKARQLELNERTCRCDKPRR
Description: Affinity for VEGF was determined as follows. Octet red96E was used, and human VEGF immobilized on the biosensor AR2G was interacted with AAA0308, AAA0589, AAA0592, and AAA0600 used as analytes, and binding and dissociation values thereof were compared and measured. As human VEGF, recombinant human VEGF165 (Sinobiological company) was used, and VEGF was immobilized on the AR2G sensor chip by an amine coupling method. At this time, the amount of VEGF used was 10 μg/ml, and the degree of coating was confirmed using a wavelength of 5 nm.
During measurement, the rotation speed was set to 100, and the temperature was measured at 30° C.
The concentration of the sample was adjusted using a kinetic buffer (Molecular Device Co.). The antibody solution of each concentration was used as a binding phase for 5 minutes, and then switched to a kinetic buffer to form a dissociation phase for 30 minutes.

[2] = target: T2, human VEGF (hVEGF), isoform not stated (human, UniProt P15692-4 27-191, limits assumed); assay: ELISA on coated hVEGF (500 ng/ml), detection with anti-hIgG-Fc HRP, A450
T2 sequence (looked up): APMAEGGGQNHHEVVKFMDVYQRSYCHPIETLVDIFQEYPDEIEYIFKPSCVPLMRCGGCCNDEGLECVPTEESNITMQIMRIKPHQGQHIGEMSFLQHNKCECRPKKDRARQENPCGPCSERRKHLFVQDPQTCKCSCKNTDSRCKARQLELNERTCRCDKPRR
Description: (§1) ELISA was performed to confirm the binding ability to VEGF. First, 100 μl of hVEGF was added to an immunoplate at a concentration of 500 ng/ml and caused to react at room temperature for 1 hour. 2% skim milk was dissolved in PBST, and then, 200 μl thereof was added onto the VEGF-coated wells and the reaction was caused to occur at room temperature for 2 hours. After the reaction, the well was washed three times using 300 μl of PBST, and then, Hz2, AAA0289, AAA0308, AAA0589, AAA0592, and AAA0600, which were purified above, were diluted starting from at a concentration of 100 ng/ml by two-fold to make a total of 11 samples. The samples were placed on the VEGF-coated well and the reaction was caused to occur at room temperature for 20 minutes. After the reaction, the well was washed three times using 300 μl of PBST, and then, anti-hIgG-Fc HRP (1:3000, Thermo) was added thereto at 100 μl/well and then reacted for 30 minutes. Then, the well was washed three times as described above, and the TMB (BioFx company) solution was added thereto at 100 μl/well to develop color at room temperature for 5 minutes. After the color development, 2N sulfuric acid was added at 50 μl/well to stop the color development, and the absorbance was measured at 450 nm, and results are shown in FIGS. 4A and 4B.

[3] = target: T2, human VEGF (hVEGF), isoform not stated; assay: as above; remark: listed apart in the source
Description: as §1

B1: Aflibercept hexamer AAA0308 (Fc fusion)
chain: SDTGRPFVEMYSEIPEIIHMTEGRELVIPCRVTSPNITVTLKKFPLDTLIPDGKRIIWDSRKGFIISNATYKEIGLLTCEATVNGHLYKTNYLTHRQTNTIIDVVLSPSHGIELSVGEKLVLNCTARTELNVGIDFNWEYPSSKHQHKKLVNRDLKTQSGSEMKKFLSTLTIDGVTRSDQGLYTCAASSGLMTKKNSTFVRVHEK[here human IgG1 Fc with changes and a few adjoining residues without letters]
**Q.** With B1 as the binder, how does the Kd [1] read?
**A.** Its Kd is < 1 pM.

**Q.** What about the koff [1] of the same binder?
**A.** The koff was < 1e-07 s⁻¹.

**Q.** And the “EC50 (read off the curve)” value [2]?
**A.** Its value is ~0.02 nM.

B2: Aflibercept AAA0289 (Fc fusion)
chain: SDTGRPFVEMYSEIPEIIHMTEGRELVIPCRVTSPNITVTLKKFPLDTLIPDGKRIIWDSRKGFIISNATYKEIGLLTCEATVNGHLYKTNYLTHRQTNTIIDVVLSPSHGIELSVGEKLVLNCTARTELNVGIDFNWEYPSSKHQHKKLVNRDLKTQSGSEMKKFLSTLTIDGVTRSDQGLYTCAASSGLMTKKNSTFVRVHEK[here human IgG1 Fc without letters]
notes: also called AAA0289 monomer
**Q.** For B2, which “EC50 (read off the curve)” value [3] is on record?
**A.** The value was ~0.03 nM.

**Q.** What about the “EC50 (read off the curve)” value [2] of the same binder?
**A.** The value was ~0.03 nM.
